Among all 310,000 compounds or so, about 14,000 (4.5%) showed an effect of 50% or more. The effect is printed as a negative number. Some of the results follow.
These molecules were tested against human ether-à-go-go-related gene (hERG) potassium channel (human, UniProt Q12809) (assay: primary screen, population patch clamp on CHO cells stably expressing hERG).
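Also: peak tail current of the secondary pulse compared with the same well before compound.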

human ether-à-go-go-related gene (hERG) potassium channel, sequence (Q12809 whole entry, looked up): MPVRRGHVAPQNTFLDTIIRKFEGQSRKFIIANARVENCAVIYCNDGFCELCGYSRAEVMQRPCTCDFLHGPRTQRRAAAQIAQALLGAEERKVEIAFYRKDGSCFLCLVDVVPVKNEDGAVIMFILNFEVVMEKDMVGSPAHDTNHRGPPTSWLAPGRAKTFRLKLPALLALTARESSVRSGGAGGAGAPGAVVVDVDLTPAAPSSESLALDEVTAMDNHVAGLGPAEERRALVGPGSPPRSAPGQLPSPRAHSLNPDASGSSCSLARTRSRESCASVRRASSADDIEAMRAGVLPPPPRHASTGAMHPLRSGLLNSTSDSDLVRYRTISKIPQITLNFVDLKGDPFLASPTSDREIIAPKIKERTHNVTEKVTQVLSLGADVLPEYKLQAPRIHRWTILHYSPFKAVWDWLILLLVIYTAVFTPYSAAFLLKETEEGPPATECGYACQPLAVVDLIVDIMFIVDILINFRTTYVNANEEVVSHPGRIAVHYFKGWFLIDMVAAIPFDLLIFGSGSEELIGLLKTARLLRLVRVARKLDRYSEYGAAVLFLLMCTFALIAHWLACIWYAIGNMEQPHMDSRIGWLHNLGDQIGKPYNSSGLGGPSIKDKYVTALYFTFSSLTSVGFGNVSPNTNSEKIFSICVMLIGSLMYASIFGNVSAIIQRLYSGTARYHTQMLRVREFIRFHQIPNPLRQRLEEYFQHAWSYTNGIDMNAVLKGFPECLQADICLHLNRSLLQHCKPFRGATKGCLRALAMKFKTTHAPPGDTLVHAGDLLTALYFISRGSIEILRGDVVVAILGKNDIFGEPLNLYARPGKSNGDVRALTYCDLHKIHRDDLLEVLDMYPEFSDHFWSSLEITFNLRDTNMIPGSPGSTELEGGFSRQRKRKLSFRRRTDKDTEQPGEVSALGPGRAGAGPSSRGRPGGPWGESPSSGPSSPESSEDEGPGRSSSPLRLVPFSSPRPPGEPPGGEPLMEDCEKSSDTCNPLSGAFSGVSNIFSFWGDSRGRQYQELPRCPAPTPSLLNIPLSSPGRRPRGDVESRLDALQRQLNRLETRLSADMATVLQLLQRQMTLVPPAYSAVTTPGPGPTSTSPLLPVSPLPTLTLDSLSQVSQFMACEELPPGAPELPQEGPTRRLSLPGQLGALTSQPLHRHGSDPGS

| SMILES | hERG current change (%, negative = inhibition) at 10uM [%] |
| --- | --- |
| CCc1nnc(NC(=O)CSc2nc3[nH]c(=O)cc(O)c3s2)s1 | -0.838 |
| CC1CCC(NC(=O)c2nn(C)c3c2CSc2ccccc2-3)CC1 (stereo not drawn) | 3.11 |
| O=C(CC12CC3CC(CC(C3)C1)C2)Nc1ccccc1N1CCOCC1 | 0.083 |
| Nc1cccc(NC(=O)CN2CCOCC2)c1 | 8.65 |
| COc1ccccc1OCCC(=O)OCC(=O)Nc1cc(S(=O)(=O)N(C)C)ccc1Cl | -6.26 |
| COC(=O)C1=CN(Cc2ccc(OC)c(OC)c2)C=C(C(=O)OC)C1c1cccc(OC)c1OC | -5.15 |
| COc1ccc(Cc2noc(CN(C)CC3CCN(Cc4ccccc4)CC3)n2)cc1OC | -22.9 |
| Cc1ccc(S(=O)(=O)CCC(=O)OCC(=O)Nc2cc(C)on2)cc1 | 16 |
| O=C(CSc1ccccn1)Nc1ccc(Cl)cn1 | 11.7 |
| COc1ccccc1OCCNC(=O)C1CCN(C(C)=O)CC1 | 25.1 |
| Cc1cc(=O)[nH]c(S/C=C/c2ccccc2)n1 | -0.872 |
| CN1CC(=O)N(CC(=O)Nc2ccc3c(c2)CCC3)C1=O | 7.65 |
| CCCCN1CC[C@H]2C=CC[C@@H](C(=O)NCc3ccc(OC)cc3)[C@H]2C1=O | 2.71 |
| CC(C)CN(C(=O)CSc1nnc2ccccn12)C1CCS(=O)(=O)C1 (stereo not drawn) | 11.6 |
| CCCn1c(SCC(=O)Nc2cc(S(=O)(=O)N(C)C)ccc2OC)n[nH]c1=O | 17.6 |
| CC(=O)n1cc([C@H]2C=C(C(=O)Nc3ccccc3)O[C@@H](OCc3ccc(CO)cc3)C2)c2ccccc21 | -2.85 |
| CC1(C)CC(NCc2ccc3c(c2)OCO3)CCO1 (stereo not drawn) | 9.64 |
| CCOC(=O)c1[nH]c(C)c(CN(CCc2ccccc2)C(=O)CCC(=O)O)c1C | 11.7 |
| Cc1cc(/C=C(\C#N)C(=O)NC2CC2)c(C)[nH]1 | -13 |

| SMILES | hERG current change (%, negative = inhibition) at 10uM [%] |
| --- | --- |
| CCN(CC(=O)NCc1cccs1)C(=O)CCOc1ccccc1C | -19.8 |
| C=C(C)c1cccc(C(C)(C)NC(=O)NCc2cccnc2)c1 | 1.9 |
| CC(=O)OC(COc1ccc(F)cc1)Cn1cnc2ccccc21 (stereo not drawn) | -2.56 |
| COC(=O)C1=C(c2ccc(F)cc2OCc2ccccc2)C[C@@H]2CC[C@H]1N2C(=O)NCc1ccccc1Br | 5.03 |
| COc1ccc(/C=C/C(=O)Oc2ccc(/C=N\NC(=O)c3ccc(F)cc3)cc2)cc1 | -2.56 |
| C=CCOC(=O)C1=C[C@@H](c2coc3ccccc3c2=O)C[C@@H](OCCCCO)O1 | -22.1 |
| CCCC(=O)NC(Nc1ccc(S(=O)(=O)Nc2ncccn2)cc1)(C(=O)OCC)C(F)(F)F (stereo not drawn) | 26.6 |
| CCOC(=O)C1CCN(CCC(=O)Nc2cccc(Cl)c2)CC1 | -67.1 |
| O=C(C1CC1)N1CCC(c2nc(-c3ccc(S(=O)(=O)NCC4CCCO4)cc3)no2)CC1 (stereo not drawn) | 0.288 |
| Cc1csc(NC(=O)C2CCC(C)(C(=O)O)C2(C)C)n1 (stereo not drawn) | 9.47 |
| Cc1nc(SCC(=O)N2CC(=O)Nc3ccccc32)c2c(C)c(C)sc2n1 | -5.65 |
| O=C(CCN1C(=O)C2CC=CCC2C1=O)Nc1cc(C(F)(F)F)ccc1N1CCCC1 (stereo not drawn) | -6.9 |
| O=c1c2ccccc2ncn1-c1cccc([N+](=O)[O-])c1 | 7.72 |
| O=C(CSc1ccccn1)Nc1ccc2c(c1)OCCO2 | 8.07 |
| CCN(CC)CCCNC(=O)c1sc2nc(-c3ccc(F)cc3)cn2c1C | -71.1 |
| N#CCCN(Cc1cccnc1)C(=O)c1ccc(S(=O)(=O)N2CCOCC2)cc1 | -4.39 |
| Cc1ccc(CNC(=O)Cn2cccc2C(=O)c2ccccc2C)cc1 | -7.1 |
| O=C(NC1CCCCCC1)C(=S)N1CCOCC1 | 6.85 |
| N/C(CS(=O)(=O)c1ccc(F)cc1)=N\O | 11.8 |

| SMILES | hERG current change (%, negative = inhibition) at 10uM [%] |
| --- | --- |
| Cn1nc(C(F)(F)F)c(/C=N/OC(=O)c2ccccc2)c1SCc1ccc(Cl)cc1 | 6.34 |
| Cc1ccc2c(cnn2C(=O)CCCC(=O)NCc2ccc(F)cc2)c1 | -9.47 |
| O=C(c1snnc1-c1ccccc1)N1CCOCC1 | 4.29 |
| Cc1ccc2c(C)nc(Nc3nc(CSc4nnc(C)s4)cc(=O)[nH]3)nc2c1 | -1.01 |
| CCOC(=O)Cc1csc(N)n1 | 9.91 |
| O=C(CCCN1C(=O)c2ccccc2C1=O)NCCCN1CCOCC1 | 20.3 |
| O=C(NCCOc1ccccc1)c1ccccc1[N+](=O)[O-] | 41.5 |
| Cc1ccc(-c2nn(-c3cccc(F)c3)cc2CNCc2cccnc2)o1 | -51.6 |
| COc1ccc(NC(=O)C2C3CCC(O3)C2C(=O)O)cc1OC (stereo not drawn) | 17.9 |
| CC(Oc1ccc(Cl)cc1Cl)C(=O)Nc1cccc(O)c1 (stereo not drawn) | -10.2 |
| c1ccc2c(c1)nc(Nc1ccc3c(c1)OCO3)c1nnnn12 | 8.5 |
| Cc1ccc(-c2c(C#N)c(N)nc3c2CCCCC3)o1 | -5.84 |
| COc1ccc2c(c1OC)C(=O)OC2Nc1nc(-c2ccccc2)cs1 (stereo not drawn) | 8.12 |
| CCn1c(SCc2nc(CC(=O)Nc3ccccc3OC)no2)nnc1-c1cccs1 | -49.8 |
| Cc1ccc(S(=O)(=O)/N=C(\N)c2ccc(Cl)cc2)cc1 | -2.48 |
| O=C1CCCc2c1cnc1ncnn21 | 6.13 |
| O=C(NCCc1ccc(Cl)cc1)C1CCN(S(=O)(=O)N2CCC3(CC2)OCCO3)CC1 | -8.62 |
| CCN1C(=O)c2cccc3c(S(=O)(=O)Nc4ccccn4)ccc1c23 | -3.39 |
| CC(=O)CSc1ncnc2sc3c(c12)CCC(C)C3 (stereo not drawn) | 4.82 |

Reference: article PMC4336329 (PLoS ONE, 2015)
